According to the supplement of paper PMC4604168 (melanoma cell lines):
This is one part of the list. Most values come without repeats; read them as rough.

The molecules below were run on IST-MEL1 (assay: cell count relative to DMSO control; melanoma cells; higher = more viable cells). Details: library dose: low library concentration; 72 h.
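Note: cell number obtained by counting DAPI-stained nuclei in high-throughput microscope images with image analysis software, screen run in 1,536-well plates.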

Question: `C[C@@H](Oc1cc(-c2cnn(C3CCNCC3)c2)cnc1N)c1c(Cl)ccc(F)c1Cl` [Crizotinib] + C#Cc1cccc(Nc2ncnc3cc(OCCOC)c(OCCOC)cc23)c1 [erlotinib] (first compound 0.2 µM, partner dose 0.8 µM) was tested. Which cell count did it give?
Answer: Its cell count is 108%.

Question: Which cell count does the source give for `CNC(=O)c1cc(Oc2ccc(NC(=O)Nc3ccc(Cl)c(C(F)(F)F)c3)cc2)ccn1` [sorafenib] + Cn1c(Nc2ccc(C(F)(F)F)cc2)nc2cc(Oc3ccnc(-c4ncc(C(F)(F)F)[nH]4)c3)ccc21 [CHIR265] (first compound 0.4 µM, partner dose 0.08 µM) here?
Answer: Its cell count is 103%.

Question: For `C=CCNC1=C2C[C@@H](C)C[C@H](OC)[C@H](O)[C@@H](C)/C=C(\C)[C@H](OC(N)=O)[C@@H](OC)/C=C\C=C(/C)C(=O)NC(=CC1=O)C2=O` [Tanespimycin] + CC(=O)c1c(C)c2cnc(Nc3ccc(N4CCNCC4)cn3)nc2n(C2CCCC2)c1=O [palbociclib] (first compound 0.002 µM, partner dose 0.04 µM), which cell count is on record?
Answer: Its cell count is 72.4%.

Question: `CN1CCN(c2ccc3nc(-c4c(N)c5c(F)cccc5[nH]c4=O)[nH]c3c2)CC1` [Dovitinib] + Cc1nc(Nc2ncc(C(=O)Nc3c(C)cccc3Cl)s2)cc(N2CCN(CCO)CC2)n1 [dasatanib] (first compound 0.1 µM, partner dose 0.004 µM) was tested. Which cell count did it give?
Answer: The cell count was 90.7%.

Question: With `CN1CCN(c2ccc3nc(-c4c(N)c5c(F)cccc5[nH]c4=O)[nH]c3c2)CC1` [Dovitinib] + C=C(c1ccc(C(=O)O)cc1)c1cc2c(cc1C)C(C)(C)CCC2(C)C [Bexarotene] (first compound 0.1 µM, partner dose 2 µM) as the molecule, how does the cell count read?
Answer: The cell count was 93%.

Question: For `CNC(=O)c1cc(Oc2ccc(NC(=O)Nc3ccc(Cl)c(C(F)(F)F)c3)cc2)ccn1` [sorafenib] + CC(=O)c1c(C)c2cnc(Nc3ccc(N4CCNCC4)cn3)nc2n(C2CCCC2)c1=O [palbociclib] (first compound 0.4 µM, partner dose 0.04 µM), which cell count is on record?
Answer: The cell count was 78.4%.

Question: With `C=CCNC1=C2C[C@@H](C)C[C@H](OC)[C@H](O)[C@@H](C)/C=C(\C)[C@H](OC(N)=O)[C@@H](OC)/C=C\C=C(/C)C(=O)NC(=CC1=O)C2=O` [Tanespimycin] + OCc1c[nH]c2ccccc12 [Indole-3-carbinol] (first compound 0.002 µM, partner dose 0.8 µM) as the molecule, how does the cell count read?
Answer: The cell count was 93.4%.

Question: Which cell count does the source give for `CS(=O)(=O)CCNCc1ccc(-c2ccc3ncnc(Nc4ccc(OCc5cccc(F)c5)c(Cl)c4)c3c2)o1` [lapatinib] + Cn1c(Nc2ccc(C(F)(F)F)cc2)nc2cc(Oc3ccnc(-c4ncc(C(F)(F)F)[nH]4)c3)ccc21 [CHIR265] (first compound 0.8 µM, partner dose 0.08 µM) here?
Answer: Its cell count is 85.7%.

Question: Which cell count does the source give for `CN1CCN(c2ccc3nc(-c4c(N)c5c(F)cccc5[nH]c4=O)[nH]c3c2)CC1` [Dovitinib] + C=CCNC1=C2C[C@@H](C)C[C@H](OC)[C@H](O)[C@@H](C)/C=C(\C)[C@H](OC(N)=O)[C@@H](OC)/C=C\C=C(/C)C(=O)NC(=CC1=O)C2=O [Tanespimycin] (first compound 0.1 µM, partner dose 0.002 µM) here?
Answer: Its cell count is 95.1%.

Question: `CN1CCN(c2ccc3nc(-c4c(N)c5c(F)cccc5[nH]c4=O)[nH]c3c2)CC1` [Dovitinib] + Nc1cccc2c1CN(C1CCC(=O)NC1=O)C2=O [lenalidomide] (first compound 0.1 µM, partner dose 1 µM) was tested. Which cell count did it give?
Answer: Its cell count is 105%.

Question: How did the cell count turn out when `CN1CCN(c2ccc3nc(-c4c(N)c5c(F)cccc5[nH]c4=O)[nH]c3c2)CC1` [Dovitinib] + O=C(O)[C@@H]1[O][Sb](=[O])([O][Sb]2(=[O])[O][C@H]([C@H](O)CO)[C@H](O)[C@H](C(=O)O)[O]2)[O][C@H]([C@H](O)CO)[C@@H]1O [stibogluconate] (first compound 0.1 µM, partner dose 2 µM) was run?
Answer: Its cell count is 104%.

Question: `C=CCNC1=C2C[C@@H](C)C[C@H](OC)[C@H](O)[C@@H](C)/C=C(\C)[C@H](OC(N)=O)[C@@H](OC)/C=C\C=C(/C)C(=O)NC(=CC1=O)C2=O` [Tanespimycin] + COc1ccc(Cl)c(Nc2nc3ccccc3nc2NS(=O)(=O)c2cccc(NC(=O)C(C)(C)N)c2)c1 [XL147] (first compound 0.002 µM, partner dose 0.8 µM) was tested. Which cell count did it give?
Answer: Its cell count is 100%.

Question: How did the cell count turn out when `CN1CCN(c2ccc3nc(-c4c(N)c5c(F)cccc5[nH]c4=O)[nH]c3c2)CC1` [Dovitinib] + Nc1ncn([C@H]2C[C@H](O)[C@@H](CO)O2)c(=O)n1 [decitabine] (first compound 0.1 µM, partner dose 0.1 µM) was run?
Answer: Its cell count is 92.3%.

Question: For `C[C@@H](Oc1cc(-c2cnn(C3CCNCC3)c2)cnc1N)c1c(Cl)ccc(F)c1Cl` [Crizotinib] + Cc1nc(Nc2ncc(C(=O)Nc3c(C)cccc3Cl)s2)cc(N2CCN(CCO)CC2)n1 [dasatanib] (first compound 0.2 µM, partner dose 0.004 µM), which cell count is on record?
Answer: Its cell count is 83.7%.

Question: Which cell count does the source give for `CS(=O)(=O)CCNCc1ccc(-c2ccc3ncnc(Nc4ccc(OCc5cccc(F)c5)c(Cl)c4)c3c2)o1` [lapatinib] + CC(=O)c1c(C)c2cnc(Nc3ccc(N4CCNCC4)cn3)nc2n(C2CCCC2)c1=O [palbociclib] (first compound 0.8 µM, partner dose 0.04 µM) here?
Answer: The cell count was 84.6%.

Question: How did the cell count turn out when `CS(=O)(=O)CCNCc1ccc(-c2ccc3ncnc(Nc4ccc(OCc5cccc(F)c5)c(Cl)c4)c3c2)o1` [lapatinib] + COCC[n+]1c2c(n(Cc3cnccn3)c1C)C(=O)c1ccccc1C2=O [YM155] (first compound 0.8 µM, partner dose 0.0004 µM) was run?
Answer: The cell count was 81.5%.

Question: Which cell count does the source give for `CN1CCN(c2ccc3nc(-c4c(N)c5c(F)cccc5[nH]c4=O)[nH]c3c2)CC1` [Dovitinib] + COCC[n+]1c2c(n(Cc3cnccn3)c1C)C(=O)c1ccccc1C2=O [YM155] (first compound 0.1 µM, partner dose 0.0004 µM) here?
Answer: The cell count was 102%.

Question: `C[C@@H](Oc1cc(-c2cnn(C3CCNCC3)c2)cnc1N)c1c(Cl)ccc(F)c1Cl` [Crizotinib] + CCCS(=O)(=O)Nc1ccc(F)c(C(=O)c2c[nH]c3ncc(Cl)cc23)c1F [PLX4720] (first compound 0.2 µM, partner dose 0.08 µM) was tested. Which cell count did it give?
Answer: The cell count was 103%.

Question: For `C=CCNC1=C2C[C@@H](C)C[C@H](OC)[C@H](O)[C@@H](C)/C=C(\C)[C@H](OC(N)=O)[C@@H](OC)/C=C\C=C(/C)C(=O)NC(=CC1=O)C2=O` [Tanespimycin] + Cc1nc(Nc2ncc(C(=O)Nc3c(C)cccc3Cl)s2)cc(N2CCN(CCO)CC2)n1 [dasatanib] (first compound 0.002 µM, partner dose 0.004 µM), which cell count is on record?
Answer: Its cell count is 89.5%.

Question: For `CS(=O)(=O)CCNCc1ccc(-c2ccc3ncnc(Nc4ccc(OCc5cccc(F)c5)c(Cl)c4)c3c2)o1` [lapatinib] + Nc1nc(F)nc2c1ncn2[C@@H]1O[C@H](CO)[C@@H](O)[C@@H]1O [fludarabine] (first compound 0.8 µM, partner dose 0.2 µM), which cell count is on record?
Answer: Its cell count is 96.3%.

Question: Which cell count does the source give for `C[C@@H](Oc1cc(-c2cnn(C3CCNCC3)c2)cnc1N)c1c(Cl)ccc(F)c1Cl` [Crizotinib] + Nc1cccc2c1CN(C1CCC(=O)NC1=O)C2=O [lenalidomide] (first compound 0.2 µM, partner dose 1 µM) here?
Answer: The cell count was 97.1%.

Question: How did the cell count turn out when `C[C@@H](Oc1cc(-c2cnn(C3CCNCC3)c2)cnc1N)c1c(Cl)ccc(F)c1Cl` [Crizotinib] + COc1ccc(Cl)c(Nc2nc3ccccc3nc2NS(=O)(=O)c2cccc(NC(=O)C(C)(C)N)c2)c1 [XL147] (first compound 0.2 µM, partner dose 0.8 µM) was run?
Answer: Its cell count is 91.5%.

Question: `CS(=O)(=O)CCNCc1ccc(-c2ccc3ncnc(Nc4ccc(OCc5cccc(F)c5)c(Cl)c4)c3c2)o1` [lapatinib] + CCCS(=O)(=O)Nc1ccc(F)c(C(=O)c2c[nH]c3ncc(Cl)cc23)c1F [PLX4720] (first compound 0.8 µM, partner dose 0.08 µM) was tested. Which cell count did it give?
Answer: Its cell count is 93.1%.
